Test results from US20100055093A1 (RECEPTOR BIOLOGIX, published 2010).

Key:
[1] = target: T1, neuregulin-1 beta 1 (NRG1β1) (human, UniProt Q02297-6 177-241, limits assumed); assay: Eu-NRG1β1 binding capacity (DELFIA)
T1 construct: also called HRG; heregulin
T1 sequence (looked up): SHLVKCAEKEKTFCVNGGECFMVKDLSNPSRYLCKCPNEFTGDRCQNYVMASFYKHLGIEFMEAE

[2] = target: the molecule itself; assay: self-association by size exclusion chromatography (apparent over calculated molecular weight)
[3] = target: T2, epidermal growth factor (EGF) (human, UniProt P01133 971-1023); assay: ligand binding screen on anti-Fc plates
T2 construct: also called Eu-EGF

[4] = target: heparin-binding EGF (HB-EGF) (UniProt Q99075 63-148, limits assumed); assay: ligand binding screen on anti-Fc plates
[5] = target: T3, transforming growth factor alpha (TGF-α) (UniProt P01135 40-89); assay: ligand binding screen on anti-Fc plates
T3 construct: also called TGF-alpha; TGF-a

[6] = target: T2, epidermal growth factor (EGF); assay: 125I-ligand cross-linking (FIG. 6a)
[7] = target: T1, neuregulin-1 beta 1 (NRG1β1); assay: 125I-HRG cross-linking (BS3), SDS-PAGE autoradiography

T2 sequence (P01133 971-1023 limits assumed): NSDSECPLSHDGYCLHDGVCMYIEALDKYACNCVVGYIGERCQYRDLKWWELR
Sequence of UniProt Q99075 (Q99075 63-148 limits assumed): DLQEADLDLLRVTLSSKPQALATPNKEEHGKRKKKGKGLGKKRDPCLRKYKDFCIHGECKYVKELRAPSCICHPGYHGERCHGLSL

B1: HER3-621/Fc homodimer (Fc fusion)
chain: SEVGNSQAVCPGTLNGLSVTGDAENQYQTLYKLYERCEVVMGNLEIVLTGHNADLSFLQWIREVTGYVLVAMNEFSTLPLPNLRVVRGTQVYDGKFAIFVMLNYNTNSSHALRQLRLTQLTEILSGGVYIEENDKLCHMDTIDWRDIVRDRDAEIVVKDNGRSCPPCHEVCKGRCWGPGSEDCQTLTKTICAPQCNGHCFGPNPNQCCHDECAGGCSGPQDTDCFACRHFNDSGACVPRCPQPLVYNKLTFQLEPNPHTKYQYGGVCVASCPHNFVVDQTSCVRACPPDKMEVDKNGLKMCEPCGGLCPKACEGTGSGSRFQTVDSSNIDGFVNCTKILGNLDFLITGLNGDPWHKIPALDPEKLNVFRTVREITGYLNIQSWPPHMHNFSVFSNLTTIGGRSLYNRGFSLLIMKNLNVTSLGFRSLKEISAGRIYISANRQLCYHHSLNWTKVLRGPTEERLDIKHNRPRRDCVAEGKVCDPLCSSGGCWGPGPGQCLSCRNYSRGGVCVTHCNFLNGEPREFAHEAECFSCHPECQPMGGTATCNGSGSDTCAQCAHFRDGPHCVSSCPHGVLGAKGPIYKYPDVQNECRPCHENCTQGCKGPELQDCLGQTLVLIGKTGGGGG[letters of human IgG1 Fc left out]
notes: also called HFD300; HFD300T
[1]
  NRG1β1 binding activity relative to the heterodimers (RB200h, RB220h): 30%
[2]
  M. Wt. (ap):M. Wt.: 4.69

B2: HFD100 mutant S193N/E330D/G588S (Fc fusion)
chain: LEEKKVCQGTSNKLTQLGTFEDHFLSLQRMFNNCEVVLGNLEITYVQRNYDLSFLKTIQEVAGYVLIALNTVERIPLENLQIIRGNMYYENSYALAVLSNYDANKTGLKELPMRNLQEILHGAVRFSNNPALCNVESIQWRDIVSSDFLSNMSMDFQNHLGSCQKCDPNCPNGSCWGAGEENCQKLTKIICAQQCSGRCRGKSPSDCCHNQCAAGCTGPRESDCLVCRKFRDEATCKDTCPPLMLYNPTTYQMDVNPEGKYSFGATCVKKCPR[letters of about 600 residues with a human IgG1 Fc left out]
[3]
  binding result: binds

B3: HFD100 mutant T43K/S193N/E330D/G588S (Fc fusion)
chain: LEEKKVCQGTSNKLTQLGKFEDHFLSLQRMFNNCEVVLGNLEITYVQRNYDLSFLKTIQEVAGYVLIALNTVERIPLENLQIIRGNMYYENSYALAVLSNYDANKTGLKELPMRNLQEILHGAVRFSNNPALCNVESIQWRDIVSSDFLSNMSMDFQNHLGSCQKCDPNCPNGSCWGAGEENCQKLTKIICAQQCSGRCRGKSPSDCCHNQCAAGCTGPRESDCLVCRKFRDEATCKDTCPPLMLYNPTTYQMDVNPEGKYSFGATCVKKCPR[letters of about 600 residues with a human IgG1 Fc left out]
notes: Tested as conditioned medium captured on anti-Fc plates; also called quad mutant
[4]
  binding result: binds
[5]
  binding result: binds
[3]
  binding result: binds

B4: HER[…]/Fc (Fc fusion)
chain: not shown
notes: Tested as conditioned medium; also called HFD200; HF200-Fc
[6]
  binding result: no binding
[7]
  binding result: no binding (tested: 5 nM 125I-HRG)
